# About 2,200 (0.71%) of roughly 310,000 compounds showed an effect of 50% or more. Effects have a minus sign here. The list shows a part of the results.
# Molecular target: human ether-à-go-go-related gene (hERG) potassium channel (human, UniProt Q12809)
# Test: primary screen, population patch clamp on CHO cells stably expressing hERG
# Sequence of human ether-à-go-go-related gene (hERG) potassium channel (Q12809 whole entry, looked up): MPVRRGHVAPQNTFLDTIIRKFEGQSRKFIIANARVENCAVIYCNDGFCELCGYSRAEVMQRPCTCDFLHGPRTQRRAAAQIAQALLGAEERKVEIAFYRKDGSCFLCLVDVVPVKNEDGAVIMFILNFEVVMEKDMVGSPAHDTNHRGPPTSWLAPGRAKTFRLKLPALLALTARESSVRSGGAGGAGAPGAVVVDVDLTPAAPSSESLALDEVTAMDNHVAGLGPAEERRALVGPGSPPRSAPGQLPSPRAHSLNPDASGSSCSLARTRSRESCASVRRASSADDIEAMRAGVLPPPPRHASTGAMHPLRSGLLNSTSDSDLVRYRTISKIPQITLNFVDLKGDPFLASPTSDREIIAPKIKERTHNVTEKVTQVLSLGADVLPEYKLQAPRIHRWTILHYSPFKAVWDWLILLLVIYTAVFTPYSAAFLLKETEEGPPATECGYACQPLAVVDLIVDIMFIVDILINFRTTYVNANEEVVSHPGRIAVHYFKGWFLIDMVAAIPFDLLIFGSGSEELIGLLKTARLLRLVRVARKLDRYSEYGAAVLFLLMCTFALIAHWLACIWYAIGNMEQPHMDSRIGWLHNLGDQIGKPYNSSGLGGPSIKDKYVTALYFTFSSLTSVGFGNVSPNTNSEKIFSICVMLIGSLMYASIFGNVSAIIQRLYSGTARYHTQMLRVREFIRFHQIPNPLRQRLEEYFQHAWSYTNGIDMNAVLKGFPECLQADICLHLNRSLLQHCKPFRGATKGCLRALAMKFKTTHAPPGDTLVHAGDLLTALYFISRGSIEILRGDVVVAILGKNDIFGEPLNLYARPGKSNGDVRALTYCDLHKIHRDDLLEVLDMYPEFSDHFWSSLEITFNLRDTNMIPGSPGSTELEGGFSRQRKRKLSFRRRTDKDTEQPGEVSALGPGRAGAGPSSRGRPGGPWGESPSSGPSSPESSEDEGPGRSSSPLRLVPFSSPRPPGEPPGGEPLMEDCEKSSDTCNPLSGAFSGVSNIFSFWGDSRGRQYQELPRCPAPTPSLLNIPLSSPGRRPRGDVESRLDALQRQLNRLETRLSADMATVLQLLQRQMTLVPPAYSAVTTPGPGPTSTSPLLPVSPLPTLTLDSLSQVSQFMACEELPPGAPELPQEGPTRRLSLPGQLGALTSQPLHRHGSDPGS
row,Structure (SMILES),"hERG current change (%, negative = inhibition) at 1uM"
1,C/C(=N\Nc1ccc(S(=O)(=O)N2CCOCC2)cc1[N+](=O)[O-])C(C)C,12.7%
2,COc1ccc(C(=O)Nc2nc3cc4c(cc3s2)OCCO4)c(OC)c1,6.91%
3,COc1ccccc1NC(=O)Cc1noc(CSc2nnc(C(F)(F)F)n2C)n1,8.37%
4,CCOC(=O)N1CCC(NC(=O)c2cc(-c3ccc(OC)cc3)nc3ccccc23)CC1,13.1%
5,Cc1nnc(N(C)C(=O)c2ccccn2)s1,13.8%
6,Fc1ccccc1Nc1ncnc2c1nnn2Cc1ccccc1,8.46%
7,Nc1nnc(CCCCCc2nnc(N)s2)s1,12%
8,COc1cc(CCC(C)NCc2ccccc2)ccc1O (centres unmarked),0.614%
9,Cc1cc(CN2CCOCC2)c(O)c(C2(C)CCCCC2)c1,9.4%
10,CC(=O)/C(=C/c1ccc(N(C)C)cc1)C(=O)c1ccccc1,14.6%
11,CCCCN(C)C1CCN(C(=S)Nc2cccc(OC)c2)CC1,0.288%
12,CCCn1c(C)cc(/C=C(\C#N)C(=O)O)c1C,9.47%
13,CC(C)NC(=O)C(=O)NNC(=O)C12CC3CC(CC(C3)C1)C2,10.7%
14,CC(NC(=O)c1ccc(S(=O)(=O)N(C)C)cc1)c1ccccc1 (centres unmarked),10.1%
15,Cc1ccc(S(=O)(=O)N(C)C)cc1NC(=O)COC(=O)/C=C/c1ccc2c(c1)OCO2,5.79%
16,N#CCC(=O)N/N=C/c1cn(Cc2ccc(Cl)c(Cl)c2)c2ccccc12,8.68%
17,COC(=O)Nc1ccc(Oc2ccccc2)cc1,3.4%
18,CCn1nnnc1SCC(=O)N1CCCCC1,4.24%
19,COC(=O)CNC(=O)c1ccccc1F,16.1%
20,CC(C(=O)N1CCN=C1c1ccccc1)N1C(=O)c2ccccc2C1=O (centres unmarked),22.7%

row,Structure (SMILES),"hERG current change (%, negative = inhibition) at 1uM"
1,CCOC(=O)CSc1nnc(-c2ccco2)n1-c1ccccc1,6.93%
2,CC(C)n1c(SCC(=O)NC2CCCCC2)nnc1-c1ccco1,9.33%
3,FC(F)Oc1ccccc1/C=N/Nc1nc2ccccc2o1,16.8%
4,CC1(NC(=O)Nc2ccccc2)CCS(=O)(=O)C1 (centres unmarked),-8.69%
5,CC(=O)NC(Cc1ccccc1F)C(=O)NC1CCN(C(=O)Nc2ccc(C)cc2)CC1 (centres unmarked),-0.535%
6,N#CCCC1CCCC=C1N(Cc1ccccc1)C(=O)C(Cl)Cl (centres unmarked),3.3%
7,CCCCn1c(CNC(=O)Cc2ccccc2)nc2ccccc21,19%
8,COc1ccc(C(=O)Nn2c(C)nc3ccccc3c2=O)cc1[N+](=O)[O-],8.27%
9,COCC(=O)N(Cc1cc2cc(C)ccc2[nH]c1=O)c1ccc(C)c(C)c1,16.4%
10,COC(=O)c1ccc2nc(-c3cccc(N)c3)cn2c1,2.83%
11,CN(C)C=NC(=O)c1cc(C(=O)c2ccc(F)cc2)c[nH]1,-5.67%
12,CCCCC(C)n1[nH]c(=O)cc1N (centres unmarked),8.59%
13,O=C(NC1CCCCC1)C(c1ccccc1F)N(Cc1ccco1)C(=O)Cn1nnc2ccccc21 (centres unmarked),-4.97%
14,COC(=O)c1ccc(CNC(=O)C2CCC(=O)N(CCc3ccccc3)C2)cc1 (centres unmarked),2.67%
15,Cc1ccc(NC(=O)c2ccc(=O)[nH]n2)cc1C,3.53%
16,CCN(CC)S(=O)(=O)c1ccc2c(c1)nc(-c1ccccn1)n2C,12%
17,O=S(=O)(O)c1ccc(N=Nc2ccccc2)cc1,16.3%
18,CCN(CC)S(=O)(=O)c1cc(NC(=O)C2Cc3ccccc3C(=O)O2)ccc1C (centres unmarked),-8.76%
19,O=C(C(F)C(F)(F)F)N1CCN(c2ccccc2)CC1 (centres unmarked),12%
20,CCNC(=S)Nc1scc(-c2ccccc2)c1C(=O)OCC,16.5%

row,Structure (SMILES),"hERG current change (%, negative = inhibition) at 1uM"
1,COCCNC(=O)C(c1ccc(O)cc1)N(Cc1ccccc1)C(=O)CCC(=O)Nc1nccs1 (centres unmarked),13.2%
2,O=C(c1cc(COc2cccc(C(F)(F)F)c2)on1)N1C[C@@H]2CCC[C@H]1C2,8.27%
3,CCCCOC(=O)CCn1[nH]c(=O)c2ccccc2c1=O,4.23%
4,Cc1occc1C(=O)Nc1cccc(Cn2cccn2)c1,-8.34%
5,COc1ccc(OCCC(=O)OCc2c(C)noc2C)cc1,8.57%
6,O=S(=O)(Nc1cccc(Oc2cnccn2)c1)c1ccc(F)cc1,15.9%
7,CNC(=O)CN(c1cccc2ccccc12)S(C)(=O)=O,8.6%
8,CCn1nc(C)c(CNC(=O)c2ccc(OC3CCN(Cc4ccccn4)CC3)cc2)c1C,9.24%
9,COc1ccc(-c2coc3c(CN4CCCCC4C)c(O)ccc3c2=O)cc1 (centres unmarked),7.15%
10,COc1ccccc1NC(=O)COC(=O)CCc1ccc(S(=O)(=O)N2CCOCC2)cc1,4.94%
11,S=C(Nc1ccc(Cl)c(Cl)c1)NC1CCN(Cc2ccccc2)CC1,-0.625%
12,C=CCNC(=O)CN1C(=O)C2C3c4ccccc4C(c4ccccc43)C2C1=O (centres unmarked),20.2%
13,O=c1[nH]c(=S)[nH]c(O)c1N=Nc1cc(S(=O)(=O)Nc2ccc(Cl)cc2)ccc1Cl,11.2%
14,Cc1nnnn1/C(=C\c1ccccc1)C(=O)OCC(=O)Nc1ccc(Cl)cc1F,16.9%
15,CCCCn1c(=O)c(C(=O)NCc2ccccc2)c(O)c2ccccc21,12.9%
16,COCc1cc(=O)[nH]c(/N=C(\N)Nc2ccc(Oc3ccccc3)cc2)n1,5.37%
17,CCCn1nnc2ccccc2c1=O,0.0784%
18,Cc1ccc(C(=O)NNC(=O)C2CCN(S(=O)(=O)c3ccc(C)cc3)CC2)cc1,0.756%
19,O=C1NC(=O)C2C3c4ccccc4C(c4ccccc43)C12 (centres unmarked),8.92%
